# US12458818B2, “Anti-trophoblast cell surface antigen 2 (TROP2) antibodies and antibody drug conjugates comprising same” (CSPC MEGALITH BIOPHARMACEUTICAL CO., LTD., priority 2019, dated 2025)
# T1: human TROP2 (Homo sapiens, UniProt P09758)
# T1 sequence (P09758 27-323): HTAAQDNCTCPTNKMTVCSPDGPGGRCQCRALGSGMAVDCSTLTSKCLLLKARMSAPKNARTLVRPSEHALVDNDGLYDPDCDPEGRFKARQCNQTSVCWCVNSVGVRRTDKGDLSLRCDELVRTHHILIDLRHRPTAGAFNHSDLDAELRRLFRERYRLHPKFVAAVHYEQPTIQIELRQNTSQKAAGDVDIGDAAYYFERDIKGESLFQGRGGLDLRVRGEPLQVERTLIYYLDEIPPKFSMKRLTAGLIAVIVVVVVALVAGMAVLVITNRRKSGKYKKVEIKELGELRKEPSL
# Biological target: T1, human TROP2
# Assay: SPR affinity ranking of humanized antibodies (Table 8C)
# Type: binding
Molecule,Ka [M⁻¹ s⁻¹],Kd (1/s) [s⁻¹],Rmax (RU),Kd [nM]
"HC5/LC4: humanized anti-TROP2 antibody, heavy chain SEQ ID NO: 56, light chain SEQ ID NO: 61 (antibody) heavy: EVQLVQSGAEVKKPGESLKISCKGSGYTFTDYSINWVRQMPGKGLEWMGVISTYYGDASYNQKFKGQVTISADKSISTAYLQWSSLKASDTAMYYCARYGDGYNQFDYWGQGTLVTVSS[human IgG1 constant region cut from this listing] light: EIVLTQSPATLSLSPGERATLSCRVSESVDSYGNNFMHWYQQKPGQAPRLLIYRASNLESGIPARFSGSGSGTDFTLTISSLEPEDFAVYYCQQSYEDPYTFGGGTKVEIKRTVAAPSVFIFPPSDEQLKSGTASVVCLLNNFYPREAKVQWKVDNALQSGNSQESVTEQDSKDSTYSLSSTLTLSKADYEKHKVYACEVTHQGLSSPVTKSFNRGEC",1.36e+06,0.000299,32.5,
HC5/LC5 (antibody) heavy: EVQLVQSGAEVKKPGESLKISCKGSGYTFTDYSINWVRQMPGKGLEWMGVISTYYGDASYNQKFKGQVTISADKSISTAYLQWSSLKASDTAMYYCARYGDGYNQFDYWGQGTLVTVSS[human IgG1 constant region cut from this listing] light: DIQMTQSPSSLSASVGDRVTITCRVSESVDSYGNNFMHWYQQKPGKAPKLLIYRASNLESGVPSRFSGSGSGTDFTFTISSLQPEDIATYYCQQSYEDPYTFGGGTKLEIKRTVAAPSVFIFPPSDEQLKSGTASVVCLLNNFYPREAKVQWKVDNALQSGNSQESVTEQDSKDSTYSLSSTLTLSKADYEKHKVYACEVTHQGLSSPVTKSFNRGEC,1.42e+06,0.000338,61.3,
"HC5/LC2: humanized anti-TROP2 antibody, heavy chain SEQ ID NO: 56, light chain SEQ ID NO: 59 (antibody) heavy: EVQLVQSGAEVKKPGESLKISCKGSGYTFTDYSINWVRQMPGKGLEWMGVISTYYGDASYNQKFKGQVTISADKSISTAYLQWSSLKASDTAMYYCARYGDGYNQFDYWGQGTLVTVSS[human IgG1 constant region cut from this listing] light: DVVMTQSPLSLPVTLGQPASISCRVSESVDSYGNNFMHWFQQRPGQSPRRLIYRASNLESGVPDRFSGSGSGTDFTLKISRVEAEDVGVYYCQQSYEDPYTFGGGTKVEIKRTVAAPSVFIFPPSDEQLKSGTASVVCLLNNFYPREAKVQWKVDNALQSGNSQESVTEQDSKDSTYSLSSTLTLSKADYEKHKVYACEVTHQGLSSPVTKSFNRGEC",261000,0.000402,0.9,
"HC1/LC2: humanized anti-TROP2 antibody, heavy chain SEQ ID NO: 52, light chain SEQ ID NO: 59 (antibody) heavy: QVQLVQSGAEVKKPGASVKVSCKASGYTFTDYSINWVRQAPGQGLEWMGVISTYYGDASYNQKFKGRVTMTTDTSTSTAYMELRSLRSDDTAVYYCARYGDGYNQFDYWGQGTMVTVSS[human IgG1 constant region cut from this listing] light: DVVMTQSPLSLPVTLGQPASISCRVSESVDSYGNNFMHWFQQRPGQSPRRLIYRASNLESGVPDRFSGSGSGTDFTLKISRVEAEDVGVYYCQQSYEDPYTFGGGTKVEIKRTVAAPSVFIFPPSDEQLKSGTASVVCLLNNFYPREAKVQWKVDNALQSGNSQESVTEQDSKDSTYSLSSTLTLSKADYEKHKVYACEVTHQGLSSPVTKSFNRGEC",249000,0.00102,2,4.09
"HC4/LC2: humanized anti-TROP2 antibody, heavy chain SEQ ID NO: 55, light chain SEQ ID NO: 59 (antibody) heavy: QVQLVQSGAEVKKPGSSVKVSCKASGYTFTDYSINWVRQAPGQGLEWMGVISTYYGDASYNQKFKGRVTITADESTSTAYMELSSLRSEDTAVYYCARYGDGYNQFDYWGQGTLVTVSS[human IgG1 constant region cut from this listing] light: DVVMTQSPLSLPVTLGQPASISCRVSESVDSYGNNFMHWFQQRPGQSPRRLIYRASNLESGVPDRFSGSGSGTDFTLKISRVEAEDVGVYYCQQSYEDPYTFGGGTKVEIKRTVAAPSVFIFPPSDEQLKSGTASVVCLLNNFYPREAKVQWKVDNALQSGNSQESVTEQDSKDSTYSLSSTLTLSKADYEKHKVYACEVTHQGLSSPVTKSFNRGEC",184000,0.000984,2.8,
"HC3/LC2: humanized anti-TROP2 antibody, heavy chain SEQ ID NO: 54, light chain SEQ ID NO: 59 (antibody) heavy: QVQLVQSGAEVKKPGASVKVSCKASGYTFTDYSINWVRQAPGQRLEWMGVISTYYGDASYNQKFKGRVTITRDTSASTAYMELSSLRSEDTAVYYCARYGDGYNQFDYWGQGTLVTVSS[human IgG1 constant region cut from this listing] light: DVVMTQSPLSLPVTLGQPASISCRVSESVDSYGNNFMHWFQQRPGQSPRRLIYRASNLESGVPDRFSGSGSGTDFTLKISRVEAEDVGVYYCQQSYEDPYTFGGGTKVEIKRTVAAPSVFIFPPSDEQLKSGTASVVCLLNNFYPREAKVQWKVDNALQSGNSQESVTEQDSKDSTYSLSSTLTLSKADYEKHKVYACEVTHQGLSSPVTKSFNRGEC",169000,0.00177,3.5,
"HC2/LC2: humanized anti-TROP2 antibody, heavy chain SEQ ID NO: 53, light chain SEQ ID NO: 59 (antibody) heavy: QVQLVQSGAEVKKPGASVKVSCKASGYTFTDYSINWVRQAPGQGLEWMGVISTYYGDASYNQKFKGRVTMTRDTSTSTVYMELSSLRSEDTAVYYCARYGDGYNQFDYWGQGTLVTVSS[human IgG1 constant region cut from this listing] light: DVVMTQSPLSLPVTLGQPASISCRVSESVDSYGNNFMHWFQQRPGQSPRRLIYRASNLESGVPDRFSGSGSGTDFTLKISRVEAEDVGVYYCQQSYEDPYTFGGGTKVEIKRTVAAPSVFIFPPSDEQLKSGTASVVCLLNNFYPREAKVQWKVDNALQSGNSQESVTEQDSKDSTYSLSSTLTLSKADYEKHKVYACEVTHQGLSSPVTKSFNRGEC",24900,0.0251,63.7,
HC2/LC1 (antibody) heavy: QVQLVQSGAEVKKPGASVKVSCKASGYTFTDYSINWVRQAPGQGLEWMGVISTYYGDASYNQKFKGRVTMTRDTSTSTVYMELSSLRSEDTAVYYCARYGDGYNQFDYWGQGTLVTVSS[human IgG1 constant region cut from this listing] light: DIVMTQSPDSLAVSLGERATINCRVSESVDSYGNNFMHWYQQKPGQPPKLLIYRASNLESGVPDRFSGSGSGTDFTLTISSLQAEDVAVYYCQQSYEDPYTFGQGTKLEIKRTVAAPSVFIFPPSDEQLKSGTASVVCLLNNFYPREAKVQWKVDNALQSGNSQESVTEQDSKDSTYSLSSTLTLSKADYEKHKVYACEVTHQGLSSPVTKSFNRGEC,1.54e+06,5.78e-05,65.3,
HC4/LC1 (antibody) heavy: QVQLVQSGAEVKKPGSSVKVSCKASGYTFTDYSINWVRQAPGQGLEWMGVISTYYGDASYNQKFKGRVTITADESTSTAYMELSSLRSEDTAVYYCARYGDGYNQFDYWGQGTLVTVSS[human IgG1 constant region cut from this listing] light: DIVMTQSPDSLAVSLGERATINCRVSESVDSYGNNFMHWYQQKPGQPPKLLIYRASNLESGVPDRFSGSGSGTDFTLTISSLQAEDVAVYYCQQSYEDPYTFGQGTKLEIKRTVAAPSVFIFPPSDEQLKSGTASVVCLLNNFYPREAKVQWKVDNALQSGNSQESVTEQDSKDSTYSLSSTLTLSKADYEKHKVYACEVTHQGLSSPVTKSFNRGEC,1.69e+06,7.74e-05,56.6,
HC2/LC5 (antibody) heavy: QVQLVQSGAEVKKPGASVKVSCKASGYTFTDYSINWVRQAPGQGLEWMGVISTYYGDASYNQKFKGRVTMTRDTSTSTVYMELSSLRSEDTAVYYCARYGDGYNQFDYWGQGTLVTVSS[human IgG1 constant region cut from this listing] light: DIQMTQSPSSLSASVGDRVTITCRVSESVDSYGNNFMHWYQQKPGKAPKLLIYRASNLESGVPSRFSGSGSGTDFTFTISSLQPEDIATYYCQQSYEDPYTFGGGTKLEIKRTVAAPSVFIFPPSDEQLKSGTASVVCLLNNFYPREAKVQWKVDNALQSGNSQESVTEQDSKDSTYSLSSTLTLSKADYEKHKVYACEVTHQGLSSPVTKSFNRGEC,1.42e+06,7.38e-05,65.6,
"HC4/LC4: humanized anti-TROP2 antibody, heavy chain SEQ ID NO: 55, light chain SEQ ID NO: 61 (antibody) heavy: QVQLVQSGAEVKKPGSSVKVSCKASGYTFTDYSINWVRQAPGQGLEWMGVISTYYGDASYNQKFKGRVTITADESTSTAYMELSSLRSEDTAVYYCARYGDGYNQFDYWGQGTLVTVSS[human IgG1 constant region cut from this listing] light: EIVLTQSPATLSLSPGERATLSCRVSESVDSYGNNFMHWYQQKPGQAPRLLIYRASNLESGIPARFSGSGSGTDFTLTISSLEPEDFAVYYCQQSYEDPYTFGGGTKVEIKRTVAAPSVFIFPPSDEQLKSGTASVVCLLNNFYPREAKVQWKVDNALQSGNSQESVTEQDSKDSTYSLSSTLTLSKADYEKHKVYACEVTHQGLSSPVTKSFNRGEC",1.71e+06,8.88e-05,38.6,
